# Reference: PubChem BioAssay (Tox21)
# Where “and” joins values, the source holds several entries; their conditions need not be identical. Equal entries are not always repeated. Inconclusive means that the source gave no clear call. Such entries were picked first, then a sample of the others. Potencies of inconclusive entries are left out as doubtful fits. Where a structure was tested more than once in an assay, its records may differ in their call. Calls of active or inactive are those of the source. Calls follow the shape of the dose curve; as a rule, active = well fitted inhibition curve with a large enough effect in the repeat runs; inconclusive = weak or mixed curves, or effect the other way; inactive = no such curve, though single readings can be large or run the other way.
# Target: Nuclear receptor ROR-gamma (Homo sapiens) (UniProt P51449)
# Test: qHTS assay to identify small molecule antagonists of the retinoid-related orphan receptor gamma (ROR-gamma) signaling pathway (AID 1159521; also: nearly all actives have a fitted effect of over 50% in size; as to activity change, negative = inhibition: top concentration of the series differs between compounds)
# Conditions: Tet-on RORgamma CHO cells, RORE-luciferase, 16 h; series mostly up to 92.4 µM; activity change, negative = inhibition: at the top concentration
# From the text: U.S. Tox21 Program National Center for Advancing Translational Sciences [NCATS] NIH Chemical Genomics Center [NCGC] U.S. Environmental Protection Agency [EPA] National Institutes of Environmental Health Sciences [NIEHS] National Toxicology Program [NTP] U.S. Food and Drug Administration [FDA] Tox21 Assay Overview: Nuclear steroid hormone receptors are involved in many biological processes including inflammatory responses, cell proliferation, and apoptosis. Environmental factors or compounds disrupting these nuclear receptor pathways and gene expression may promote susceptibility to immunotoxicants and autoimmune diseases. One important group of these expression factors are the retinoid-related orphan receptors. To assess compounds that may interfere with the retinoid-related orphan receptor gamma (ROR-gamma) transcription factor, a cell-based luciferase assay was used. The CHO cell-based assay utilizes a TET-inducible ROR expression factor and ROR response element-LUC reporter gene. Reporter gene activity was induced using Doxycycline Hyclate and measured after 16 hr incubation. Tet-on ROR gamma CHO cells were used to screen against the Tox21 10K compound library for ROR gamma antagonists by quantification of decreased reporter gene activity in terms of decreased luminescence.
# Tox21 Assay Protocol Summary: Tet-on ROR gamma CHO cells were dispensed at 1,000 cells in 4 uL of culture medium per well into white wall/solid bottom 1536-well plates using a Multidrop Combi (Thermo Scientific, Waltham, MA) dispenser. Following incubation at 37 C and 5% CO2 for 4 hr, 23 nL of compounds dissolved in DMSO, positive controls or DMSO only were transferred by a Pintool station (Kalypsys, San Diego, CA) and after 2 hr incubation at 37 C, one ul of 1 uM (final concentration) of Doxycycline Hyclate was added to all the wells by using a Flying Reagent Dispenser (FRD) (Aurora Discovery, San Diego, CA). After 16 hr incubation at 37 C and 5% CO2, 5 uL of ONE-Glo reagent (Promega Corporation, Madison, WI) was added to each assay plate using FRD. After 30 min incubation at room temperature, luminescence was quantified on a ViewLux plate reader (Perkin Elmer, Waltham, MA).
# % is scaled to controls: 0 for no effect and ±100 for the full control effect; potency is read from the fitted curve at half-maximal effect; tags tell the direction and shape of the fitted curve.
SMILES,Potency,"activity change, negative = inhibition"
O=S(c1cc(Cl)cc(Cl)c1O)c1cc(Cl)cc(Cl)c1O,"inconclusive [inhibitor, single point]",
Nc1ncnc2c1ncn2[C@@H]1O[C@H](CO)[C@@H](O)[C@H]1O,,inactive: -17.7% [at 42.5 µM]
CCCOC(=O)c1cc(O)c(O)c(O)c1,"inconclusive [inhibitor, partial curve, poor fit]",
O=C1CCCCCCCCCCCN1,"inconclusive [inhibitor, partial curve, poor fit]",
CCCCCCCCCCCCCCCC(=O)OC[C@H](O)[C@H]1OC(=O)C(O)=C1O,"inconclusive [inhibitor, single point]",
O=C(N/N=C/c1ccccc1O)c1ccncc1,active: 23.7 µM,
O=C(N/N=C/c1ccc([N+](=O)[O-])o1)c1ccc(O)cc1,inconclusive [inhibitor],
CCOC(=O)N1CCC(n2c(=O)[nH]c3cc(Cl)ccc32)CC1,"inconclusive [inhibitor, partial curve, poor fit]",
COc1cccc(CCc2ccccc2OCC(CN(C)C)OC(=O)CCC(=O)O)c1 (stereo not given),active: 7.5 µM,
CCCCCCCCCCCCCCCCCCOS(=O)(=O)O,"inconclusive [inhibitor, single point]",
CCCCC/C=C\C/C=C\CCCCCCCC(=O)O,"inconclusive [inhibitor, single point]",
C=C[C@@]1(C)CC(=O)[C@]2(O)[C@@]3(C)[C@@H](O)CCC(C)(C)[C@@H]3[C@H](O)[C@H](OC(C)=O)[C@@]2(C)O1,"inconclusive [inhibitor, single point]",
CCC(Cl)C(Cl)C(Cl)CC(Cl)C(Cl)C(C)Cl (stereo not given),"inconclusive [inhibitor, single point]",
Cc1cccc(C)c1NC(=O)CN1CCN(CCCC(c2ccc(F)cc2)c2ccc(F)cc2)CC1,active: 21.1 µM,
CCCCCCCCCCCC[N+](C)(C)Cc1ccccc1,"inconclusive [inhibitor, partial curve, poor fit]",
CC(C)Nc1cccnc1N1CCN(C(=O)c2cc3cc(NS(C)(=O)=O)ccc3[nH]2)CC1,"inconclusive [inhibitor, full curve]",
C#C[C@]1(O)CC[C@H]2[C@@H]3CCc4cc(OC)ccc4[C@H]3CC[C@@]21C,"inconclusive [inhibitor, partial curve, poor fit]",
CCOC(=O)/C=C(C)/C=C/C=C(C)/C=C/c1c(C)cc(OC)c(C)c1C,"inconclusive [inhibitor, partial curve, poor fit]",
O=C(c1ccccc1)c1ccccc1O,"inconclusive [inhibitor, partial curve, poor fit]",
COc1cc2c(c(OC)c1OC)-c1ccc(OC)c(=O)cc1[C@@H](NC(C)=O)CC2,active: 538 nM and active: 686 nM and active: 37.6 nM,

SMILES,Potency,"activity change, negative = inhibition"
Nc1nnc(-c2ccc([N+](=O)[O-])o2)o1,active: 6.86 µM,
Nc1nc(=S)c2[nH]cnc2[nH]1,"inconclusive [inhibitor, full curve, poor fit]",
CCO[C@@H]1O[C@H](C(COCc2ccccc2)OCc2ccccc2)[C@H](OCc2ccccc2)[C@H]1O (stereo not given in full),"inconclusive [inhibitor, partial curve, poor fit]",
NNc1ccc(C(=O)O)cc1,inactive,
CCN1CCc2nc(N)oc2CC1,,inactive: 56.6% [at 42.5 µM]
O=C(c1ccc(F)cc1)C1CCN(CCn2c(=S)[nH]c3ccccc3c2=O)CC1,"inconclusive [inhibitor, full curve, poor fit]",
O=C(CCCN1CCC(O)(c2ccc(Cl)cc2)CC1)c1ccc(F)cc1,"inconclusive [inhibitor, partial curve, poor fit]",
O=C(O)c1cc(N=Nc2ccc([N+](=O)[O-])cc2)ccc1O,,inactive: 70.3%
CNCCCN1c2ccccc2CCc2ccccc21,"inconclusive [inhibitor, partial curve, poor fit]",
C[C@@H](C1=C(CCN(C)C)Cc2ccccc21)c1ccccn1,,inactive: -15.2% [at 42.5 µM]
Oc1ccccc1O,active: 8.74 µM and active: 27.3 µM,
S=c1nccc[nH]1,"inconclusive [inhibitor, single point]",
CC(C)C(C)(C)C(C)(C)C(C)(C)S,"inconclusive [inhibitor, single point]",
CN(C)[C@@H](CCOc1cccc2ccccc12)c1ccccc1,"inconclusive [inhibitor, partial curve, poor fit]",
C[C@]12CCC(=O)C=C1CC[C@@H]1[C@@H]2[C@@H](O)C[C@@]2(C)[C@H]1CC[C@]2(O)C(=O)COC(=O)CCC(=O)O,"inconclusive [inhibitor, single point]",
CCCCCOC(=O)Nc1nc(=O)n([C@@H]2O[C@H](C)[C@@H](O)[C@H]2O)cc1F,active: 11.9 µM,
Cc1cc(C(C)(C)C)c(O)c(C)c1Cn1c(=O)n(Cc2c(C)cc(C(C)(C)C)c(O)c2C)c(=O)n(Cc2c(C)cc(C(C)(C)C)c(O)c2C)c1=O,,inactive: -11.8%
Oc1cccc(O)c1,"inconclusive [inhibitor, single point]",
COC(=O)c1nc(Cl)c(Cl)nc1N,active: 3.76 µM,
C=CCOC(=O)/C=C\C(=O)OCC=C,"inconclusive [inhibitor, single point]",
